# According to the supplement of paper PMC8728848:
# The other results are listed elsewhere or left out.
# B1: B725 (Bifidobacterium sp) (protein)
# chain: MNNTTRAVIATAAIGALLIPLAGCGNTTTSSGKTELTVWSWDASIDRAAKSFMKANPDITVKVSNVGSTEETYTALNNAAQAGSGLPDVTLIEYLAIPQFVHSDTLMDLSKVYNTAKLKDTFTPGTWNSVNINGGLYAMPADSGPMAYFYDKDVFDKAGISEPPTTWDEFYEDAKKIRATGSYITSDSGDAGLFNAMMWAMGGHAYKLNDDKLTINIAKDKGAQRFMDLWQKMRDEDLIDVHTKTWTDDWMKSLGDGSIASLISGAWMANNLLQGVPQATGKFRVALLPTIDGTPINGEYGGSGLAITKKIPDGKLDAAKKFVEYVTTNDEGIDARVSNGSFPATTKTLNQKDFLAKTTLRNTDGSDNEFFGGQKYNEIFSQAAKDVTGKWEFLPFEPYARSVYNDNMGSFFAGKTSFRTAADNWQKALKDYAKDQGFTVQ
# Assays:
# Experiment in all cases: glycan array binding signal (z-score within array); higher = stronger binding
# Conditions in all cases: glycan notation: IUPAC condensed, linker removed
# [1] = molecular target: Gal(b1-3)GlcNAc(b1-3)Gal(b1-4)GlcNAc(b1-2)[Gal(b1-3)GlcNAc(b1-3)Gal(b1-4)GlcNAc(b1-6)]Man(a1-6)[Gal(b1-3)GlcNAc(b1-3)Gal(b1-4)GlcNAc(b1-2)Man(a1-3)]Man(b1-4)GlcNAc(b1-4)[Fuc(a1-6)]GlcNAc
# Method in brief: (§1)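 Glycan array data came from 3228 arrays in the Consortium for Functional Glycomics database, and only arrays with an available protein sequence were kept. Glycan names were put into IUPAC-condensed notation, and columns mapping to the same glycan were averaged. The binding signal is a within-array Z-score, averaged across arrays of one protein sequence run at different concentrations or buffers and across linkers. A negative Z-score can be read as non-binding.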
# [2] = molecular target: Gal(b1-3)GlcNAc(b1-3)Gal(b1-4)GlcNAc(b1-3)Gal(b1-4)GlcNAc(b1-2)[Gal(b1-3)GlcNAc(b1-3)Gal(b1-4)GlcNAc(b1-3)Gal(b1-4)GlcNAc(b1-6)]Man(a1-6)[Gal(b1-3)GlcNAc(b1-3)Gal(b1-4)GlcNAc(b1-3)Gal(b1-4)GlcNAc(b1-2)Man(a1-3)]Man(b1-4)GlcNAc(b1-4)[Fuc(a1-6)]GlcNAc
# Method in brief: as §1
# [3] = molecular target: Gal(b1-3)GlcNAc(b1-3)Gal(b1-4)GlcNAc(b1-6)[Gal(b1-3)GlcNAc(b1-3)]Gal(b1-4)Glc
# Method in brief: as §1
# [4] = molecular target: Gal(b1-3)GlcNAc(b1-3)Gal(b1-4)[Fuc(a1-3)]GlcNAc
# Method in brief: as §1
# [5] = molecular target: Gal(b1-3)GlcNAc(b1-3)Gal(b1-4)[Fuc(a1-3)]GlcNAc(b1-6)[Gal(b1-3)GlcNAc(b1-3)]Gal(b1-4)Glc
# Method in brief: as §1
# [6] = molecular target: Gal(b1-3)GlcNAc(b1-3)GalNAc
# Method in brief: as §1
# [7] = molecular target: Gal(b1-3)GlcNAc(b1-6)Gal(b1-4)GlcNAc
# Method in brief: as §1
# [8] = molecular target: Gal(b1-3)GlcNAc(b1-6)GalNAc
# Method in brief: as §1
# [9] = molecular target: Gal(b1-3)GlcNAc(b1-6)[Gal(b1-3)]GalNAc
# Method in brief: as §1
# Gal(b1-3)GlcNAc6S = molecular target: Gal(b1-3)GlcNAc6S
# Method in brief: as §1
# [10] = molecular target: Gal(b1-3)[Fuc(a1-4)]GlcNAc
# Method in brief: as §1
# [11] = molecular target: Gal(b1-3)[Fuc(a1-4)]GlcNAc(b1-2)Man
# Method in brief: as §1
# [12] = molecular target: Gal(b1-3)[Fuc(a1-4)]GlcNAc(b1-2)Man(a1-3)[Gal(b1-3)[Fuc(a1-4)]GlcNAc(b1-2)Man(a1-6)]Man(b1-4)GlcNAc(b1-4)[Fuc(a1-6)]GlcNAc
# Method in brief: as §1
# [13] = molecular target: Gal(b1-3)[Fuc(a1-4)]GlcNAc(b1-3)Gal(b1-3)[Fuc(a1-4)]GlcNAc
# Method in brief: as §1
# [14] = molecular target: Gal(b1-3)[Fuc(a1-4)]GlcNAc(b1-3)Gal(b1-4)[Fuc(a1-3)]GlcNAc
# Method in brief: as §1
# [15] = molecular target: Gal(b1-3)[Fuc(a1-4)]GlcNAc(b1-6)GalNAc
# Method in brief: as §1
# [16] = molecular target: Gal(b1-3)[GlcNAc(b1-6)]GalNAc
# Method in brief: as §1
# [17] = molecular target: Gal(b1-3)[Neu5Ac(a2-6)]GalNAc
# Method in brief: as §1
# [18] = molecular target: Gal(b1-3)[Neu5Ac(a2-6)]GlcNAc(b1-4)Gal(b1-4)Glc
# Method in brief: as §1
# [19] = molecular target: Gal(b1-3)[Neu5Ac(b2-6)]GalNAc
# Method in brief: as §1
# Gal(b1-4)Gal = molecular target: Gal(b1-4)Gal
# Method in brief: as §1
# [20] = molecular target: Gal(b1-4)GalNAc(a1-3)[Fuc(a1-2)]Gal(b1-4)GlcNAc
# Method in brief: as §1
# [21] = molecular target: Gal(b1-4)GalNAc(b1-3)[Fuc(a1-2)]Gal(b1-4)GlcNAc
# Method in brief: as §1
# Gal(b1-4)Glc = molecular target: Gal(b1-4)Glc
# Method in brief: as §1
# Gal(b1-4)Glc6S = molecular target: Gal(b1-4)Glc6S
# Method in brief: as §1
# Gal(b1-4)GlcNAc = molecular target: Gal(b1-4)GlcNAc
# Method in brief: as §1
# [22] = molecular target: Gal(b1-4)GlcNAc(a1-6)Gal(b1-4)GlcNAc
# Method in brief: as §1
# Gal(b1-4)GlcNAc(b1-2)Man = molecular target: Gal(b1-4)GlcNAc(b1-2)Man
# Method in brief: as §1
# [23] = molecular target: Gal(b1-4)GlcNAc(b1-2)Man(a1-3)Man(b1-4)GlcNAc(b1-4)GlcNAc
# Method in brief: as §1
# [24] = molecular target: Gal(b1-4)GlcNAc(b1-2)Man(a1-3)[Gal(b1-4)GlcNAc(b1-2)Man(a1-6)]Man(b1-4)GlcNAc(b1-4)GlcNAc
# Method in brief: as §1
# [25] = molecular target: Gal(b1-4)GlcNAc(b1-2)Man(a1-3)[Gal(b1-4)GlcNAc(b1-2)Man(a1-6)]Man(b1-4)GlcNAc(b1-4)[Fuc(a1-6)]GlcNAc
# Method in brief: as §1
# [26] = molecular target: Gal(b1-4)GlcNAc(b1-2)Man(a1-3)[Gal(b1-4)GlcNAc(b1-2)Man(a1-6)][Gal(b1-4)GlcNAc(b1-4)]Man(b1-4)GlcNAc(b1-4)[Fuc(a1-6)]GlcNAc
# Method in brief: as §1
# [27] = molecular target: Gal(b1-4)GlcNAc(b1-2)Man(a1-3)[Gal(b1-4)GlcNAc(b1-2)Man(a1-6)][GlcNAc(b1-4)]Man(b1-4)GlcNAc(b1-4)[Fuc(a1-6)]GlcNAc
# Method in brief: as §1
# [28] = molecular target: Gal(b1-4)GlcNAc(b1-2)Man(a1-3)[GlcNAc(b1-2)Man(a1-6)]Man(b1-4)GlcNAc(b1-4)GlcNAc
# Method in brief: as §1
# [29] = molecular target: Gal(b1-4)GlcNAc(b1-2)Man(a1-3)[GlcNAc(b1-4)][Gal(b1-4)GlcNAc(b1-2)Man(a1-6)]Man(b1-4)GlcNAc(b1-4)GlcNAc
# Method in brief: as §1
# [30] = molecular target: Gal(b1-4)GlcNAc(b1-2)Man(a1-3)[Man(a1-6)]Man(b1-4)GlcNAc(b1-4)GlcNAc
# Method in brief: as §1
# [31] = molecular target: Gal(b1-4)GlcNAc(b1-2)Man(a1-6)Man(b1-4)GlcNAc(b1-4)GlcNAc
# Method in brief: as §1
# [32] = molecular target: Gal(b1-4)GlcNAc(b1-2)Man(a1-6)[GlcNAc(b1-2)Man(a1-3)]Man(b1-4)GlcNAc(b1-4)GlcNAc
# Method in brief: as §1
binder,measurement,setting,value
B1,glycan array binding signal (z-score),[1],-0.086
same,glycan array binding signal (z-score),[2],-0.096
same,glycan array binding signal (z-score),[3],0.204
same,glycan array binding signal (z-score),[4],-0.224
same,glycan array binding signal (z-score),[5],-0.144
same,glycan array binding signal (z-score),[6],-0.209
same,glycan array binding signal (z-score),[7],-0.18
same,glycan array binding signal (z-score),[8],-0.199
same,glycan array binding signal (z-score),[9],-0.2
same,glycan array binding signal (z-score),Gal(b1-3)GlcNAc6S,-0.136
same,glycan array binding signal (z-score),[10],-0.219
same,glycan array binding signal (z-score),[11],-0.205
same,glycan array binding signal (z-score),[12],-0.139
same,glycan array binding signal (z-score),[13],-0.225
same,glycan array binding signal (z-score),[14],-0.203
same,glycan array binding signal (z-score),[15],-0.187
same,glycan array binding signal (z-score),[16],-0.224
same,glycan array binding signal (z-score),[17],-0.228
same,glycan array binding signal (z-score),[18],0.006
same,glycan array binding signal (z-score),[19],-0.229
same,glycan array binding signal (z-score),Gal(b1-4)Gal,-0.215
same,glycan array binding signal (z-score),[20],-0.218
same,glycan array binding signal (z-score),[21],-0.221
same,glycan array binding signal (z-score),Gal(b1-4)Glc,1.18
same,glycan array binding signal (z-score),Gal(b1-4)Glc6S,-0.222
same,glycan array binding signal (z-score),Gal(b1-4)GlcNAc,3.27
same,glycan array binding signal (z-score),[22],-0.176
same,glycan array binding signal (z-score),Gal(b1-4)GlcNAc(b1-2)Man,-0.209
same,glycan array binding signal (z-score),[23],-0.229
same,glycan array binding signal (z-score),[24],-0.212
same,glycan array binding signal (z-score),[25],-0.204
same,glycan array binding signal (z-score),[26],-0.231
same,glycan array binding signal (z-score),[27],-0.234
same,glycan array binding signal (z-score),[28],-0.23
same,glycan array binding signal (z-score),[29],-0.208
same,glycan array binding signal (z-score),[30],-0.232
same,glycan array binding signal (z-score),[31],-0.219
same,glycan array binding signal (z-score),[32],-0.223
